In the supplement of paper PMC3334620:
In all, about 33,000 sequences were measured (“E-score (-0.5 to 0.5)”: median about -0.013, highest 2% from about 0.3 on). This is one part of the list.

Target: T1, Msn1 (UniProt P22148)
T1 sequence: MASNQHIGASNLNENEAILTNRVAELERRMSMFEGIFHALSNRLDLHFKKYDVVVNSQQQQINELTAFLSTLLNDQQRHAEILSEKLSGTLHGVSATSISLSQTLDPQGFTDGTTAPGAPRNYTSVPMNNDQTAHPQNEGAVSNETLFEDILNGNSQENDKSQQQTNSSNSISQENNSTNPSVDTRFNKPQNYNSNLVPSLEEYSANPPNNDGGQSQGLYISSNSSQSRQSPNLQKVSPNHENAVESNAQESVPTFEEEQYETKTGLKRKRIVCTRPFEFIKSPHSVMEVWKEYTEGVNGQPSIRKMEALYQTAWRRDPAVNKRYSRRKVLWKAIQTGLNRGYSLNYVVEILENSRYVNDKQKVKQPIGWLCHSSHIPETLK
Test: PBM E-score (8-mer binding enrichment) (E-score (-0.5 to 0.5)); higher = stronger / more preferred TF binding; most listed sequences are background and not binding sites
Details: protein concentration: 200 nM; construct: GST-full length
Summary of the method: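 Detection of bound protein used fluorescent anti-GST, with scans normalised by masliner. The proteins were GST-tagged yeast transcription factors applied at about 100-200 nM to universal all-10-mer Agilent arrays made double-stranded by primer extension. Each ungapped eight-base word, pooled with its reverse complement, was scored with an E-score from the Universal PBM Analysis Suite.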

| Sequence | PBM E-score |
| --- | --- |
| CTAAGTCC | -0.0602 |
| CTGAGTTC | 0.0107 |
| GGGGTGAC | -0.166 |
| CTCACTCC | -0.069 |
| TACCCAAA | 0.196 |
| CCGCAAAC | 0.0701 |
| ACTTGTAT | 0.145 |
| GGGCAACC | -0.125 |
| ACACTATG | 0.0864 |
| AGCTCAAG | 0.0255 |
| CTTGAAAG | -0.0147 |
| CTATAGGC | -0.144 |
| GCGCGAGC | -0.251 |
| CCACCGAG | -0.135 |
| CCCCATAG | -0.15 |
| GTGGACAC | 0.356 |
| CATATTTC | 0.0185 |
| CCGATTGC | 0.104 |
| CGTTCCCA | -0.158 |
| CAACAATG | 0.153 |
| ATAGTCCA | 0.13 |
| AGCATCAG | -0.147 |
| ATCAATCC | -0.0213 |
| CCGTCGAA | 0.0145 |
| AAATATTA | 0.198 |

| Sequence | PBM E-score |
| --- | --- |
| ACGAGGTA | -0.0556 |
| CTGCTTAC | -0.0712 |
| ACAACAGC | 0.231 |
| AGCCCACG | -0.0627 |
| AGTTCTGA | 0.119 |
| AGGTAATC | -0.139 |
| ATTCCGGG | 0.14 |
| CGCGTATC | 0.123 |
| ATAAGACA | 0.264 |
| CAACTTCA | -0.0655 |
| TGGGAACA | 0.0591 |
| AAAGGGCA | -0.0617 |
| GTCCTATA | 0.303 |
| CATGAAGA | -0.0152 |
| AAGGGAGT | -0.192 |
| CGACGATA | 0.0245 |
| AAATGCAA | 0.00682 |
| AACGTGGA | -0.00782 |
| AGACGAAG | -0.0272 |
| AAAGTCCT | 0.427 |
| ACGCAAAG | -0.0925 |
| GTGTCTAA | 0.192 |
| ACGACTTG | 0.0425 |
| CAAATCTA | 0.219 |
| CCCTCGGC | -0.0865 |

| Sequence | PBM E-score |
| --- | --- |
| GAGTCTCC | -0.0706 |
| GCAAACAC | -0.135 |
| CTGTTCTC | -0.0397 |
| AAGTTTTC | 0.0629 |
| CGACAAAG | 0.294 |
| ATTCCTGC | 0.0301 |
| CGCGAACC | 0.119 |
| GCACTACC | -0.127 |
| AAAAGAAA | 0.171 |
| GCAATCCC | -0.162 |
| AGGTAACA | 0.113 |
| GAATGAAC | -0.0115 |
| ACAGTCGA | -0.0747 |
| AAGCAGCG | -0.07 |
| CAGAACGC | -0.144 |
| GAACCCGA | -0.0647 |
| ACCTCACA | -0.124 |
| CACCGCGG | 0.0101 |
| ACCTCGAG | -0.0305 |
| CATTATTA | 0.111 |
| CGGACCGA | 0.165 |
| CCTTAAAC | -0.114 |
| GAGTCTCA | 0.00041 |
| AGACATTA | 0.429 |
| TGGGGACA | 0.433 |

| Sequence | PBM E-score |
| --- | --- |
| CAAAGGCG | -0.0257 |
| ATTGTGAA | 0.0287 |
| GCAAGGTA | -0.0942 |
| GGATACAA | 0.155 |
| CCTATGAA | -0.00165 |
| CAGCCCCA | -0.196 |
| AAATCCCT | -0.141 |
| CAAGATCA | -0.135 |
| ACCCCACC | -0.111 |
| AGGATCAA | 0.104 |
| ATAATCTG | -0.129 |
| CGACTCAG | -0.0304 |
| ACTTACTA | -0.0134 |
| ATACCCCA | 0.105 |
| CTTTCTAA | 0.174 |
| AATCTGGA | -0.0116 |
| AGCGGCTC | -0.0877 |
| CCGGATAC | 0.0563 |
| AATACATC | 0.0242 |
| GGCCATAA | 0.02 |
| GTCGTTGA | 0.0537 |
| CCATTAGG | -0.0674 |
| GGCGGCCC | -0.338 |
| AACATTCA | -0.0503 |
| CGAACGAG | 0.0596 |

| Sequence | PBM E-score |
| --- | --- |
| CGAGAGAG | -0.0305 |
| AATACGAC | -0.0936 |
| AGGTTCAT | -0.256 |
| CGTAACTC | -0.304 |
| CCGCGTGC | -0.206 |
| CATACCAC | 0.155 |
| CACATGGC | -0.028 |
| GATTAAAA | 0.25 |
| AGAAGACC | -0.156 |
| CTACACGC | -0.145 |
| CTGTACTA | 0.177 |
| ACAAATGG | 0.345 |
| AAGTTACA | -0.11 |
| AGTCGCGA | 0.21 |
| TAGTGTGA | -0.141 |
| AGCTATCC | -0.139 |
| CCCGAGGC | -0.25 |
| ATGCCAAG | 0.114 |
| ACGGGTTA | -0.274 |
| CCAACTCG | -0.116 |
| TCCATAGA | 0.241 |
| GTACACTA | 0.0663 |
| CCTGCCGA | -0.0209 |
| CTATGGCC | -0.165 |
| CCCGGGAC | 0.0863 |

| Sequence | PBM E-score |
| --- | --- |
| CTTGTGTC | 0.304 |
| TCACAAAA | 0.119 |
| CCCTGGAA | -0.222 |
| AGCACGGA | -0.0452 |
| CGTTGTCC | 0.413 |
| ACACACCC | 0.131 |
| ACGTATCC | -0.0999 |
| TGGATAAA | 0.182 |
| GCCTAACC | -0.109 |
| TATGTGAA | -0.121 |
| CAAAGTCC | 0.296 |
| TAGAGTAA | 0.00729 |
| GTTGGCAA | -0.0296 |
| AGATCAAG | 0.0944 |
| AAGGTTCG | 0.0141 |
| ACGTATCA | -0.0451 |
| CCGTGTCC | 0.413 |
| AACTAATA | 0.326 |
| CCAGGTAA | 0.0404 |
| GCACATAA | -0.0366 |
| CCCCTTCG | -0.192 |
| CAGCGCCG | -0.125 |
| CAGCAGAC | 0.0732 |
| CGGAGAAA | 0.0512 |
| AACCTGCC | -0.102 |

| Sequence | PBM E-score |
| --- | --- |
| CCAGGTAC | -0.0417 |
| CGAGTAGA | -0.165 |
| ACAAAATC | 0.352 |
| ACTTGATG | 0.0141 |
| CAAAGCCG | 0.0702 |
| GGGAATCA | -0.0168 |
| TAAAGGCA | -0.00043 |
| ACAAAAGT | 0.295 |
| AAGGGACG | 0.111 |
| GATGGGGA | -0.143 |
| GAAGTAGC | -0.206 |
| AACCACAT | 0.083 |
| GTGGCCAA | -0.0704 |
| GGCCTTTA | -0.0897 |
| CCTTAAGG | -0.0168 |
| CGCATACG | -0.0304 |
| ATCAGTCC | -0.197 |
| GGGTTGAA | 0.0117 |
| ACCTGCGT | -0.149 |
| CGCTAGGA | -0.0538 |
| GACAACCC | 0.0834 |
| GACTTTCA | 0.271 |
